PMC4336329 (PLoS ONE, 2015)
The whole screen tested about 310,000 compounds, of which about 14,000 (4.5%) showed an effect of 50% or more. Effects have a minus sign here. The list shows a part of the results.

biological target: human ether-à-go-go-related gene (hERG) potassium channel (human, UniProt Q12809); assay: primary screen, population patch clamp on CHO cells stably expressing hERG
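Also: peak tail current of the secondary pulse compared with the same well before compound.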

Chain of human ether-à-go-go-related gene (hERG) potassium channel (Q12809 whole entry, looked up): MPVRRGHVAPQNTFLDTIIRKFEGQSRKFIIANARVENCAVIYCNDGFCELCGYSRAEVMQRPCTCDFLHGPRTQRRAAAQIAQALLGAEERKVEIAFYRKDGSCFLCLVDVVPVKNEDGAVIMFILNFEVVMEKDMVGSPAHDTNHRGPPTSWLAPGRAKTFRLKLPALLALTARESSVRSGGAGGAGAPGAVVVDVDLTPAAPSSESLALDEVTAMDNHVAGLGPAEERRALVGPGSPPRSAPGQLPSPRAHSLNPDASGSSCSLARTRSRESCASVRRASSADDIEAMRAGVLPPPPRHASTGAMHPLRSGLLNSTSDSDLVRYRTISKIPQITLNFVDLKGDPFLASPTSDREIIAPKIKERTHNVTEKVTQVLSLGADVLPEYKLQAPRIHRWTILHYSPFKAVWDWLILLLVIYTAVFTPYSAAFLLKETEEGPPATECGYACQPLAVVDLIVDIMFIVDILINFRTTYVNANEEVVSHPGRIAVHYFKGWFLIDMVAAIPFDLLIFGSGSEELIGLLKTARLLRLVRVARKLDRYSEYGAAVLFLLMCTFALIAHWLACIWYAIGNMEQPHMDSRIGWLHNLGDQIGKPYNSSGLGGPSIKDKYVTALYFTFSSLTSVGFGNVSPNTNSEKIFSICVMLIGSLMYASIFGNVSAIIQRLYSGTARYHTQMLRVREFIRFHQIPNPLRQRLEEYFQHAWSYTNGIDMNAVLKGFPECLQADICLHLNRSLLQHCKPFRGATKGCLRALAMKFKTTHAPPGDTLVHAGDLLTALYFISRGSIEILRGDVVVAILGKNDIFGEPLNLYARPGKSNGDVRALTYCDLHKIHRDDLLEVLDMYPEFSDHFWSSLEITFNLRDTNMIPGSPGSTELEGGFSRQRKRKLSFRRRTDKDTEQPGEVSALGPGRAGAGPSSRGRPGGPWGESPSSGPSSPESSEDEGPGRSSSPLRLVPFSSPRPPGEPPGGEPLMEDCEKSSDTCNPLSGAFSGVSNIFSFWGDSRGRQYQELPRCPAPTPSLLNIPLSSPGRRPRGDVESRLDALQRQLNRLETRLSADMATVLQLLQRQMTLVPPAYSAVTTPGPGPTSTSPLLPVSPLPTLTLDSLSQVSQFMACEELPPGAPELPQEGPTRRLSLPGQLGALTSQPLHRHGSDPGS

| Structure (SMILES) | hERG current change (%, negative = inhibition) at 10uM [%] |
| --- | --- |
| COc1cc(C(=O)NNC(=S)NC(=O)c2ccc(F)cc2)cc(OC)c1OC | -34.2 |
| Cl.c1cc(CNC2C3CC4CC(C3)CC2C4)ccn1 (stereo not drawn) | -2.21 |
| COc1ccccc1CNC(=O)c1cccc(N(C)C)c1 | -2.52 |
| Clc1ccc(OCc2nc(-c3ccccn3)n[nH]2)cc1 | -55.6 |
| Cc1ccc(S(=O)(=O)N2CCN(C(=O)COC(=O)CCOc3cc(C)ccc3C)CC2)cc1 | 2.58 |
| S=C(NCCCN1CCOCC1)N(Cc1ccccc1)Cc1ccccc1 | -32 |
| CCN(CC)CCCNC(=O)c1[nH]c2ccccc2c1Sc1ccc(Cl)cc1 | -89.5 |
| Nc1c([N+](=O)[O-])c(=O)oc2ccccc12 | 19.1 |
| COc1cc(C(=O)Nc2ccc(Oc3ncnc4sc(-c5ccccc5)cc34)cc2)cc(OC)c1OC | 14.2 |
| CCOC(=O)C1CCN(S(=O)(=O)c2c(C)[nH]c(C)c2C(=O)N2CCCCC2)CC1 | 8.24 |
| Cc1c(OC(C)C(=O)N[C@@H](Cc2ccccc2)C(=O)O)ccc2c3c(c(=O)oc12)CCCC3 (stereo partly drawn) | 10.7 |
| CCc1ccc(OC(C)C(=O)Nc2ccccc2C(=O)N2CCOCC2)cc1 (stereo not drawn) | 5.32 |
| NC(=O)C[n+]1cccc2ccccc21.[I-] | 9.16 |
| O=C(Nc1cccnc1N1CCOCC1)c1cc2ccccc2oc1=O | 9.33 |
| Cc1sc2ncnc(N3CCC(C(=O)Nc4nc(-c5cccs5)cs4)CC3)c2c1C | -3.62 |
| CC(C(=O)Nc1nc(-c2ccc(F)cc2)cs1)N1C(=O)C2CC=CCC2C1=O (stereo not drawn) | -36.7 |
| Cc1ccc(C2=C/C(=C\c3cccnc3)C(=O)O2)cc1 | 30.8 |
| O=C(c1ccccc1Cl)N1CCN(S(=O)(=O)c2cccs2)CC1 | 3.29 |
| O=C(NN=C1CCCC1)c1n[nH]c2c1CCC2 | 1.63 |
| Cc1nc([N+](=O)[O-])cn1CC(=O)Nc1ccc2c(c1)OCO2 | -12.7 |
| COc1ccc(NC(=O)CSc2nnc(Cn3cnc([N+](=O)[O-])n3)n2C)cc1 | 1.72 |
| CCNC(=S)Nc1cccc(S(=O)(=O)Nc2ccccc2OC)c1 | 4.61 |
| CCOc1ccc(NC(=O)c2c[nH]n3c(=O)cc(C4CCN(C(=O)OC(C)(C)C)CC4)nc23)cc1 | -4.42 |
| Cc1ccccc1OCCCN1C(=O)C(=O)c2cccc(C)c21 | -0.123 |
